According to the supplement of paper PMC12217912:
The list shows a part of the results. Sequences were assembled here from the parent chain. Values near 0.05 are background.

B1: TEV protease; numbered along this chain (parent)
chain: MGESLFKGPRDYNPISSSICHLTNESDGHTTSLYGIGFGPFIITNKHLFRRNNGTLVVQSLHGVFKVKDTTTLQQHLVDGRDMIIIRMPKDFPPFPQKLKFREPQREERICLVTTNFQTKSMSSMVSDTSCTFPSGDGIFWKHWIQTKDGQCGSPLVSTRDGFIVGIHSASNFTNTNNYFTSVPKNFMELLTNQEAQQWVSGWRLNADSVLWGGHKVFMVKPEEPFQPVKEATQL

Variants of: B1
Experiment: raw area under fraction-flipped curve 0-4 h after induction (AUC4h, not background-subtracted), DNA-recorder readout of cleavage of the substrate (dimensionless); higher = more cleavage of the substrate by the protease variant
Conditions: temperature: 34 °C; time window: 0-4 h after rhamnose induction
Protocol: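 In vivo DNA recorder in E. coli TOP10(DE3) ΔrhaA at 34 °C. Each TEVp single-site mutant (parent TEVp 0) is paired with a single-site variant of the 7-mer TEVs (canonical ENLYFQ|S). The substrate sits between flexible linkers in a Bxb1-sfGFP-TEVs-SsrA fusion, so cleavage stabilises Bxb1 and speeds flipping of a recombination array, read by NGS. The value is the raw area under the fraction-flipped curve over 0-4 h after rhamnose induction (AUC4h), with ≥20 reads per time point. It is not background-subtracted; inactive controls average about 0.047.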
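Also: Bxb1 expression induced with 0.2% (w/v) L-rhamnose at OD600 near 0.5, cultures sampled hourly, flipped fraction per protease–substrate barcode pair counted by paired-end Illumina sequencing.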

| Variant | area with substrate ENLCFQS | area with substrate ENLDFQS | area with substrate ENLEFQS | area with substrate ENLFFQS | area with substrate ENLHFQS | area with substrate ENLIFQS | area with substrate ENLKFQS | area with substrate ENLLFQS | area with substrate ENLQFQS | area with substrate ENLRFQS | area with substrate ENLSFQS | area with substrate ENLTFQS | area with substrate ENLVFQS | area with substrate ENLWFQS | area with substrate ENLMFQS | area with substrate ENLPFQS | area with substrate ENLNFQS | area with substrate ENLGFQS |
| --- | --- | --- | --- | --- | --- | --- | --- | --- | --- | --- | --- | --- | --- | --- | --- | --- | --- | --- |
| G80N | 0.0765 | 0.0611 | 0.0584 | 0.0875 | 0.0673 | 0.0647 | 0.0813 | 0.0835 | 0.0535 | 0.0833 | 0.0582 | 0.0557 | 0.106 | 0.092 |  |  |  |  |
| H168M | 0.0992 |  | 0.0621 |  | 0.0542 | 0.0581 | 0.0256 | 0.0637 | 0.0577 | 0.0577 | 0.0406 |  |  | 0.0688 | 0.049 | 0.0186 |  |  |
| A232W | 0.0766 | 0.0772 | 0.0621 |  | 0.0659 |  | 0.0799 | 0.0836 |  | 0.067 | 0.0546 |  |  |  |  | 0.0703 | 0.0727 |  |
| V200L | 0.0505 | 0.0629 | 0.0626 | 0.0693 |  | 0.0532 | 0.0628 |  | 0.0736 |  |  |  |  |  |  | 0.0543 | 0.0493 |  |
| S16V | 0.0655 | 0.0644 | 0.0744 | 0.101 | 0.0739 | 0.0909 |  | 0.0601 | 0.065 | 0.0728 | 0.0504 |  |  | 0.0747 | 0.076 | 0.0624 | 0.0472 | 0.0662 |
| A232C | 0.0684 | 0.0631 |  | 0.0891 |  |  | 0.0851 |  |  | 0.067 |  |  | 0.0938 | 0.0693 |  |  | 0.084 |  |
| L56M | 0.0642 | 0.039 |  | 0.0951 | 0.0821 | 0.11 | 0.0776 |  | 0.106 | 0.0547 |  |  | 0.0692 | 0.0854 |  | 0.0484 | 0.0634 |  |
| W144Y | 0.108 | 0.0767 | 0.0501 | 0.0743 | 0.0763 | 0.0662 | 0.0754 | 0.064 | 0.0832 | 0.0652 | 0.0599 |  | 0.0785 |  | 0.067 | 0.0661 | 0.0666 | 0.0681 |
| V200H | 0.057 | 0.0643 | 0.0655 | 0.0671 | 0.0651 |  | 0.0711 |  | 0.0522 | 0.0607 | 0.0608 |  |  | 0.0512 | 0.0628 | 0.0599 | 0.0644 | 0.0623 |
| H168D | 0.0564 | 0.0621 | 0.0623 | 0.06 | 0.0569 | 0.0715 | 0.0658 | 0.0783 | 0.0582 | 0.0669 | 0.0589 |  | 0.0545 | 0.0583 |  | 0.0563 | 0.069 | 0.0584 |
| T72N | 0.0715 | 0.0635 | 0.125 | 0.0976 | 0.0661 | 0.0756 | 0.0711 |  | 0.0516 | 0.0567 | 0.0633 |  | 0.0704 | 0.0431 | 0.0606 | 0.0595 | 0.0523 |  |
| D208K | 0.0846 |  |  |  | 0.0749 |  |  |  |  |  | 0.0498 |  |  |  |  |  | 0.0565 |  |
| P184H |  | 0.0621 | 0.0597 | 0.0658 | 0.0301 |  | 0.0614 | 0.0545 |  | 0.0563 |  |  | 0.0592 |  |  | 0.0586 |  |  |
| D149M |  | 0.0709 | 0.0664 | 0.0694 | 0.0555 |  | 0.0665 | 0.0882 | 0.0542 | 0.0703 | 0.0751 |  |  | 0.069 |  | 0.0537 | 0.0661 | 0.0943 |
| K120P |  | 0.0659 | 0.0676 |  |  | 0.0923 | 0.0627 |  |  |  | 0.0481 | 0.0683 |  |  | 0.0603 | 0.0612 | 0.0642 |  |
| H168A |  | 0.0689 | 0.0736 |  |  |  |  |  |  | 0.078 |  |  |  |  | 0.066 |  |  |  |

| Variant | area with substrate ENLCFQS | area with substrate ENLDFQS | area with substrate ENLEFQS | area with substrate ENLFFQS | area with substrate ENLHFQS | area with substrate ENLIFQS | area with substrate ENLKFQS | area with substrate ENLLFQS | area with substrate ENLQFQS | area with substrate ENLRFQS | area with substrate ENLSFQS | area with substrate ENLTFQS | area with substrate ENLVFQS | area with substrate ENLWFQS | area with substrate ENLMFQS | area with substrate ENLPFQS | area with substrate ENLNFQS | area with substrate ENLGFQS |
| --- | --- | --- | --- | --- | --- | --- | --- | --- | --- | --- | --- | --- | --- | --- | --- | --- | --- | --- |
| V64T |  | 0.0597 |  | 0.0986 |  | 0.0919 | 0.0499 |  | 0.0437 | 0.0796 |  |  | 0.0844 |  |  |  |  |  |
| L56C |  | 0.0446 | 0.065 | 0.0914 | 0.051 | 0.0803 | 0.0721 | 0.0502 | 0.0629 | 0.0635 | 0.0696 | 0.0617 |  |  |  | 0.0761 | 0.0497 | 0.0562 |
| M88E |  | 0.0648 | 0.0502 | 0.0391 | 0.0753 |  | 0.0534 |  |  |  |  |  | 0.0644 |  |  | 0.0432 | 0.0683 |  |
| S16E |  | 0.0617 |  | 0.07 | 0.0705 | 0.0829 | 0.059 | 0.0688 | 0.0821 | 0.0716 | 0.0618 |  |  | 0.0709 |  | 0.0647 | 0.0676 |  |
| I19R |  | 0.0581 | 0.0561 | 0.0578 | 0.0594 | 0.0509 | 0.0516 | 0.0456 |  | 0.0529 | 0.0589 | 0.0397 | 0.0489 | 0.037 | 0.0649 | 0.0511 | 0.0585 |  |
| S32Q |  | 0.0422 | 0.0678 | 0.088 | 0.0746 |  | 0.0941 | 0.0665 | 0.112 | 0.0767 | 0.0722 |  |  | 0.0732 |  | 0.0705 | 0.0691 |  |
| L48E |  | 0.0667 |  | 0.0873 | 0.0576 | 0.0707 | 0.0593 | 0.0753 | 0.0487 |  | 0.0478 |  |  | 0.0789 |  | 0.0581 | 0.0653 | 0.0615 |
| L112F |  | 0.0496 | 0.0734 | 0.074 | 0.0655 |  | 0.101 | 0.0806 |  | 0.0784 | 0.0554 |  |  | 0.056 | 0.0744 |  | 0.0615 |  |
| D128C |  | 0.0678 | 0.0618 | 0.101 | 0.0813 | 0.105 | 0.0893 | 0.0593 | 0.0824 | 0.0801 | 0.0874 | 0.0545 |  | 0.0773 | 0.0813 | 0.0706 | 0.0846 | 0.0601 |
| A232V |  | 0.0752 |  |  | 0.0645 |  |  |  | 0.0628 |  |  |  |  | 0.0586 |  |  |  |  |
| E224N |  | 0.0667 | 0.0557 | 0.0845 |  | 0.0836 | 0.0975 | 0.0577 | 0.0748 | 0.0684 | 0.0637 | 0.0679 |  | 0.0889 | 0.0865 | 0.0266 | 0.0666 | 0.0598 |
| V200W |  | 0.0754 |  |  | 0.0552 |  | 0.0646 |  |  |  |  |  |  |  | 0.0542 |  |  |  |
| Q197W |  | 0.0578 | 0.0654 | 0.0945 | 0.0608 |  | 0.0696 | 0.0544 |  | 0.0877 | 0.0439 |  |  |  | 0.062 | 0.062 | 0.0635 | 0.0794 |
| S16G |  | 0.0689 | 0.0281 | 0.0811 | 0.0779 |  | 0.0887 |  |  |  | 0.0583 |  | 0.0814 | 0.0598 | 0.0642 |  | 0.0664 |  |
| P40C |  | 0.063 | 0.0697 | 0.0859 | 0.08 | 0.0866 | 0.0807 |  |  | 0.0719 |  |  | 0.106 |  |  | 0.063 | 0.0512 | 0.0665 |
